About 4,300 (8.3%) of roughly 52,000 compounds were called active. Cut-off read from the data, not from the text of the source: active = survival mostly below about 52% (no sharp cut-off); inactive = mostly above about 56%. This is one part of the list.
Each molecule was assayed on DeltatarO mutant (assay: growth inhibition of S. aureus wild type versus tarO mutant, primary screen, teichoic acid synthesis inhibitors, RN4220, OD600 (AID 463173)). Conditions: OD600, 18 h, active compounds read low, screened at 18.75 µg/mL (by protocol).

SMILES	survival
CC1CCC(Nc2nc3c(-c4cccc(C(F)(F)F)c4)nnn3c3ccccc23)CC1 (centres undefined)	active: -3%
CC(CN1CCCCC1)OC(=O)CCc1ccccc1 (centres undefined)	inactive: 110%
Cc1ccc(NC(=O)C2CCCN(S(=O)(=O)c3cn(C(C)C)cn3)C2)c(C)c1 (centres undefined)	inactive: 55%
CC1(N)CCS(=O)(=O)C1 (centres undefined)	inactive: 89%
COc1ccccc1-c1noc(CCC(=O)Nc2ccc(C)cc2C)n1	inactive: 87%
CCOC(=O)CSc1ncnc2sc3c(c12)CCC3	inactive: 96%
CCCOc1ccc(CNC(=O)c2ccc(-n3c(C)cc4c3CCC(C)C4)cc2)cc1 (centres undefined)	inactive: 97%
Cc1cc2oc(C(=O)Nc3ccc(S(=O)(=O)Nc4ncccn4)cc3)cc(=O)c2cc1C	inactive: 53%
CCOC(=O)C(O)C(C)(C)CN1C(=O)c2ccccc2C1=O (centres undefined)	inactive: 76%
CCN(C(=O)CSc1nc2ccccc2[nH]1)c1ccccc1	inactive: 85%
Cc1ccc(NC(=O)Cn2ccn(-c3ccccc3)c(=O)c2=O)cc1	active: 56%
CCOc1ccc(C2NC(=O)c3c(COC)cc(C)nc3N2Cc2ccccc2)cc1OC (centres undefined)	inactive: 130%
Cc1ccc(Cn2cc(S(=O)(=O)c3cccc(Cl)c3)c(=O)c3cc(F)c(N4CCOCC4)cc32)cc1	inactive: 85%
CC1Cc2ccccc2N1C(=O)CSc1nnc(-c2ccccc2Cl)o1 (centres undefined)	active: 49%
C=CCOc1ccc(CNn2cn[nH]c2=S)cc1	inactive: 77%
NC(=O)C1CCN(C(=O)C2C3C=CC(O3)C2C(=O)O)CC1 (centres undefined)	inactive: 98%
N#C/C(=C\c1c[nH]c2ccccc12)C(N)=O	inactive: 99%
CC(=O)c1ccc(Nc2cc(C)nc3nc(Cc4ccc(Cl)cc4)nn23)cc1	inactive: 60%
CCc1ccc2oc(C(=O)Nc3cc(C)ccc3C)cc(=O)c2c1	inactive: 52%
CC(C)c1nn2c(=O)cc(COC(=O)c3ccccc3NC(=O)C3CCCCC3)nc2s1	inactive: 90%

SMILES	survival
O=C(Nc1cc2c(cc1C(=O)c1ccccc1Cl)OCCO2)c1ccccc1	inactive: 113%
OCCN1CCN(C(c2ccccc2Cl)c2sc3nc(-c4ccco4)nn3c2O)CC1 (centres undefined)	inactive: 55%
COc1ccc(CCNC(=O)c2ccc3c(c2)OCO3)cc1	inactive: 110%
N#CC(C#N)=C(C(C#N)=C1Nc2ccccc2N1)c1ccccc1F	inactive: 59%
Cc1cc(C)c(NC(=O)CCn2c(=O)c3cccn3c3cccnc32)c(C)c1	inactive: 79%
Clc1cccc(CNc2cc(-c3ccccc3)nc3nncn23)c1	inactive: 67%
Cc1cc(C)cc(Oc2coc3cc(OCC(=O)NC4CCCCC4)ccc3c2=O)c1	inactive: 136%
Cc1cc(N)c(-n2cc3c(c2-c2ccc(Br)cc2)c(=O)n(C)c(=O)n3C)cc1C	inactive: 66%
CCOc1ccc(OCC)c(NC(=O)CC(C)n2nc(C)cc2C)c1 (centres undefined)	inactive: 84%
CCOc1ccc(-c2cc(C(=O)Nc3ccc(NC(C)=O)cc3)no2)cc1	inactive: 61%
O=C(O)CCCNc1cc(N2CCN(C3CCCCC3)CC2)c2noc3c2c1C(=O)c1ccccc1-3	inactive: 74%
CCCS(=O)(=O)N1CC(=O)N(c2cc(C)ccc2C)C(C)(C(=O)NC2CCCCCC2)C1 (centres undefined)	inactive: 117%
COc1cccc(-c2cn3c(n2)sc2cc(C(=O)NCCc4ccc(OC)c(OC)c4)ccc23)c1	inactive: 49%
N#CC1=C(N)N(c2cccc(Cl)c2)C2=C(C(=O)CCC2)C1c1cc(CN2CCOCC2)cs1 (centres undefined)	inactive: 70%
Cc1cccc(N2CCn3c2nc2c3c(=O)n(CCc3ccccc3)c(=O)n2C)c1	inactive: 92%
CC1Oc2ccccc2N(CC(=O)NCc2ccccc2)C1=O (centres undefined)	inactive: 92%
Cc1cccc(N2C(=O)CS(=O)(=O)C23C(=O)N(Cc2c(F)cccc2Cl)c2ccccc23)c1 (centres undefined)	inactive: 95%
CSc1cccc(NC(=O)CN2CCN(Cc3ccccc3C)S2(=O)=O)c1	inactive: 124%
COc1ccc(Cl)cc1NC(=O)Cn1cc(C(=O)c2ccc(C)cc2)c(=O)c2ccc(C)nc21	inactive: 73%
O=C1CCC(=O)N1CNc1ccccc1	inactive: 85%

SMILES	survival
CCOc1ccc(C(=O)Nc2cccc(C(=O)OCc3cc(=O)n4nc(C5CC5)sc4n3)c2)cc1	inactive: 83%
CCOC(=O)c1ccccc1NC(=O)CSc1nc(=O)[nH]c2c1CCC2	inactive: 78%
COc1ccc(CCNC(=O)c2c(O)nc3ccccn3c2=O)cc1	inactive: 81%
Cc1ccccc1CN1C(=O)C2(c3ccccc31)N(c1ccccc1)C(=O)CS2(=O)=O (centres undefined)	inactive: 124%
CCOc1ccc(NC(=O)CC2C(=O)N(c3ccc(C)cc3)C(=O)N2CCC2=CCCCC2)cc1 (centres undefined)	inactive: 71%
Nc1nonc1-c1nc2ccccc2n1Cc1cccc(Cl)c1	inactive: 80%
O=C(c1cccn2c(=O)c3cc(Cl)ccc3nc12)N1CCN(c2ccccc2F)CC1	inactive: 76%
Cc1ccc(CN(C(=O)c2ccccc2F)c2ccccn2)o1	inactive: 75%
CC(=O)Nc1ccc(S(=O)(=O)N2CCC(c3nnnn3-c3ccccc3)CC2)cc1	inactive: 76%
CCOc1ccc(-n2nc(CO)c(C(=O)NCCCc3ccccc3)n2)cc1	inactive: 89%
COc1ccc(OCC(=O)Nc2nnc3n2CCS3)cc1	inactive: 84%
CCOC(=O)N1CCN(Cc2nc3cc(NC(=O)c4ccc(OC)cc4)ccc3n2C(C)C)CC1	inactive: 80%
C=Cc1ccc(Cn2c(C)c(CNCCc3ccccc3C)c(C(=O)O)c2C)cc1	inactive: 53%
O=C(COc1ccc(Cl)cc1)Nc1ccc(C(=O)OCc2cc(=O)n3ccsc3n2)cc1	inactive: 88%
FC(F)(F)Oc1ccc2c(c1)NC(c1ccncc1)=NC(c1cccs1)=N2	inactive: 91%
Cc1ccn2c(=O)c(C(=O)NCCCN3CCCCC3C)c(O)nc2c1 (centres undefined)	inactive: 86%
COc1ccc2oc(=O)c(C(=O)Nc3ccc(C(=O)O)cc3)cc2c1	inactive: 136%
C=CCc1cccc2cc(C(=O)Nc3ccc(F)cc3)c(=O)oc12	active: 44%
COc1cccc(CSc2nc3n(n2)C(c2cccc(F)c2)C(C(=O)Nc2ccccc2C)=C(C)N3)c1 (centres undefined)	inactive: 86%
